In assay [1] the target is T1, endogenous FXR (human (endogenous in Huh7 and PLC-5)) (UniProt Q96RI1).
T1 sequence: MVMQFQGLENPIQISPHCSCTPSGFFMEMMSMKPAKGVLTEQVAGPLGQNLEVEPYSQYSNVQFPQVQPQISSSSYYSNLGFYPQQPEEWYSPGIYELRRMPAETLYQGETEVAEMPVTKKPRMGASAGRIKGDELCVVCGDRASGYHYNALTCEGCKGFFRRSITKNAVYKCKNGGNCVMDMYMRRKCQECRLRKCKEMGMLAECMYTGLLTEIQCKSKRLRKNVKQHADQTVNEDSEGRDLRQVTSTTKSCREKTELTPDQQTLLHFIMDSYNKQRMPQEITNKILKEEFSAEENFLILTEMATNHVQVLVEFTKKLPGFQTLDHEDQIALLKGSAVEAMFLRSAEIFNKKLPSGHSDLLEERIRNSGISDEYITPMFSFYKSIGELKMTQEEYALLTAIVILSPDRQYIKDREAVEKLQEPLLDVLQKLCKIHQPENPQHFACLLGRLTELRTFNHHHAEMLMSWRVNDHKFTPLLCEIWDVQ
Nature of the assay: co-IP; endogenous proteins in Huh7 or PLC-5 cell lysates; anti-FXR antibody followed by IgG agarose; bound β-Catenin detected by Western blot. (In general: A western blot detects proteins with antibodies after separation by electrophoresis.)

Protein sequences, listed by entry. Tags and fused reporters are not part of them.
UniProt P35222: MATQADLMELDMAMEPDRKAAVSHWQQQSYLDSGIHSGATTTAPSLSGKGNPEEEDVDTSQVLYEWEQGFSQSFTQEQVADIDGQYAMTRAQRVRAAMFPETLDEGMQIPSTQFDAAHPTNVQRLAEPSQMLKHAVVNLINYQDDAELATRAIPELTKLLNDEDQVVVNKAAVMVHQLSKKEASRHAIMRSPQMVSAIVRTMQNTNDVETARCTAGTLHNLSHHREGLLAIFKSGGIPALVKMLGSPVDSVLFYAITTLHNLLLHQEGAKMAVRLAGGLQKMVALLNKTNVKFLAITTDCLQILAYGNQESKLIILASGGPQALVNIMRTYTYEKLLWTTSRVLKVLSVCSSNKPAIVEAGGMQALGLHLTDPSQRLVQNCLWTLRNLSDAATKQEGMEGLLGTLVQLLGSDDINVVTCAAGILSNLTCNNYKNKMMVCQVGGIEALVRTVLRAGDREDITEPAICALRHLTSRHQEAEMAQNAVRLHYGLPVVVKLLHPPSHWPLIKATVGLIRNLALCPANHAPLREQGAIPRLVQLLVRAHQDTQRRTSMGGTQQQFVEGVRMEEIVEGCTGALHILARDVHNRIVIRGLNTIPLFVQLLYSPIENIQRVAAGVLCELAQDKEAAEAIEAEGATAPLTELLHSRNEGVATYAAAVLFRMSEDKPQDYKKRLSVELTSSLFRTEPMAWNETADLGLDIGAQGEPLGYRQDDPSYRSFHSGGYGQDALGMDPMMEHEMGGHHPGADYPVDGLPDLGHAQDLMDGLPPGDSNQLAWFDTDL
UniProt Q9NQB0: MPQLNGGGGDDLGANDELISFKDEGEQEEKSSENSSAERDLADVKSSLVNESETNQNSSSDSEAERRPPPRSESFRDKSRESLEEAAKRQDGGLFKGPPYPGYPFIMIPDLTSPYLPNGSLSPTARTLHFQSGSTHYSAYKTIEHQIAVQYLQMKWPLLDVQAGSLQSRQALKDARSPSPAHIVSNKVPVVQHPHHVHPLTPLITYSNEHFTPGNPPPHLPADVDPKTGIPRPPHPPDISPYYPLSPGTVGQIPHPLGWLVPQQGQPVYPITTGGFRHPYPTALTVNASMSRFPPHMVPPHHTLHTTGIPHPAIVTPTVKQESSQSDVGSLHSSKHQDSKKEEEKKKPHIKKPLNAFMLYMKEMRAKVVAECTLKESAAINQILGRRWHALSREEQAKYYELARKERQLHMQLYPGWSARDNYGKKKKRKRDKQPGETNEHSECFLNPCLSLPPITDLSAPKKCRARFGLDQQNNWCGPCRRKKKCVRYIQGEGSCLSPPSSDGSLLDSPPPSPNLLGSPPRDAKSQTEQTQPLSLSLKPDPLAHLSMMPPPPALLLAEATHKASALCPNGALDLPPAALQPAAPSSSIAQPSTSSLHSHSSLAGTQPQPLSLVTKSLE

In assay [2] the target is T2, Myc-FXR (Farnesoid X receptor, full length) (human) (UniProt Q96RI1).
T2 sequence: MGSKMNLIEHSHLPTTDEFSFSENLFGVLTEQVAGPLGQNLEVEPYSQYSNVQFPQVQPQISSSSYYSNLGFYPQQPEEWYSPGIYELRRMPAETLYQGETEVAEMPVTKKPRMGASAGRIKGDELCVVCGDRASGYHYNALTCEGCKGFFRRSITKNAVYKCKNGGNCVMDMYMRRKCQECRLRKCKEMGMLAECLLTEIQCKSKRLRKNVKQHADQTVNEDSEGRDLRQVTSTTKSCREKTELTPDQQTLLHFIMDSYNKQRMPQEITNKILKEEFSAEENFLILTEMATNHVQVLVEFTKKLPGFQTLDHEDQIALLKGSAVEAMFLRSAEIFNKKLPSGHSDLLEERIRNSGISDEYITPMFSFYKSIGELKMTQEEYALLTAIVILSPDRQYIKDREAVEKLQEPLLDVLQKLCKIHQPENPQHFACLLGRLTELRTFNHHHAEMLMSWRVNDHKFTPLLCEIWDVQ
Briefly: co-IP; HEK293 (legends: HEK293T) cells co-transfected with Myc-FXR or Myc-tagged FXR deletion mutants and HA-β-Catenin or HA-TCF4; lysates precipitated with anti-Myc agarose, blot with anti-HA; lysis buffer 50 mM HEPES pH 7.5, 150 mM NaCl, 1% Triton X-100.

The target of another assay is T3, Myc-FXR(ΔC-ter) (human) (UniProt Q96RI1).
T3 sequence: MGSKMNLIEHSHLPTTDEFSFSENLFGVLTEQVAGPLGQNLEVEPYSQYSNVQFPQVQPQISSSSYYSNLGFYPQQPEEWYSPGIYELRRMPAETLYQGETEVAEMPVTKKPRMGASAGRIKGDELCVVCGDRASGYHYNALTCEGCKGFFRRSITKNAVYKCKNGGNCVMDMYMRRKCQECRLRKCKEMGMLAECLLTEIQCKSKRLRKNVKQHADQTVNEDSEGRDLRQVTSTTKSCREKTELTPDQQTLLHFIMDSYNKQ
The description is as above.

The target of a further assay is T4, Myc-FXR(Δ240) (human) (UniProt Q96RI1).
T4 sequence: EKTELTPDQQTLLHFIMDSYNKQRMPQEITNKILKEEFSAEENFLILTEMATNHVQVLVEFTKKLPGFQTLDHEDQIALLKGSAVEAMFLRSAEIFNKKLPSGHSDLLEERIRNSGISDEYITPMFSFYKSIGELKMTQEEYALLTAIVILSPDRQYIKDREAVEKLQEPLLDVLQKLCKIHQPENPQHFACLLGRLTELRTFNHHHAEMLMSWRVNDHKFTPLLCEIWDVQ
Described as above.

In a further assay the target is T5, Myc-FXR(Δ125) (human) (UniProt Q96RI1).
T5 sequence: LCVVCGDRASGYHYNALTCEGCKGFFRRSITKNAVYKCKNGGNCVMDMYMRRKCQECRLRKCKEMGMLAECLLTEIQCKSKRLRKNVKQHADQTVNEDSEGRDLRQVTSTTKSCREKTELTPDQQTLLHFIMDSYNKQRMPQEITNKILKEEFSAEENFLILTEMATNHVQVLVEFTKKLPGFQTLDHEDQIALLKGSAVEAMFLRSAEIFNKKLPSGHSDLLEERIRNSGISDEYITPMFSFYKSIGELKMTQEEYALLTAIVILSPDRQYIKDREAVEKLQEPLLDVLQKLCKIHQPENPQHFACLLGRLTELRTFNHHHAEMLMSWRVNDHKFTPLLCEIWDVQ
The assay is described as above.

In the next assay the target is T6, Myc-FXR(Δ186) (human) (UniProt Q96RI1).
T6 sequence: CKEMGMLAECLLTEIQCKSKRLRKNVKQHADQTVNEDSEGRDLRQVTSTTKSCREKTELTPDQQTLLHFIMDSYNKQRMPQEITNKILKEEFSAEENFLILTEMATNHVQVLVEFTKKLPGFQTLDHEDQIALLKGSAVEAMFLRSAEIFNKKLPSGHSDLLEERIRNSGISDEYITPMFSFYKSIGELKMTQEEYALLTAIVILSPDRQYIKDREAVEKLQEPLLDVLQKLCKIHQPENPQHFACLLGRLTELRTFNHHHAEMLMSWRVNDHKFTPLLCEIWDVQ
The description is as above.

The target in another assay is T7, Myc-FXR(ΔAF2) (human) (UniProt Q96RI1).
T7 sequence: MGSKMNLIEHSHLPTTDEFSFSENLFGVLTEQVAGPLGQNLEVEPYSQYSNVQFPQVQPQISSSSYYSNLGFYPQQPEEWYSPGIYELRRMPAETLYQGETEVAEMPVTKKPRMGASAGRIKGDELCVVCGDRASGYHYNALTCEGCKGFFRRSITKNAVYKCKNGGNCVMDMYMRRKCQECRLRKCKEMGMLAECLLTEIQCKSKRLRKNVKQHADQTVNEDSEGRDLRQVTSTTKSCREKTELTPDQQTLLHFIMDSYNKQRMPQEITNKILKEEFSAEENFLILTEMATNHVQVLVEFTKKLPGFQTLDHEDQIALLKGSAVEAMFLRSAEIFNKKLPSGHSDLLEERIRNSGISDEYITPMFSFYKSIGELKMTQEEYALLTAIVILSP
The description is as above.

A further assay concerns the target GST-β-Catenin (UniProt P35222). Nature of the assay: pull-down; GST or GST-β-Catenin on glutathione-Sepharose 4B beads, incubated with purified His-FXR at 4°C overnight in 20 mM Tris-HCl pH 7.5, 150 mM NaCl, 0.2% Nonidet P40, 10% glycerol; 6 washes; Western blot; both purified.

The text below walks through data of article PMC4414185.

No constants are given. Whether binding was seen depends on the method and setting. For part of these data: In cells and extracts the contact can be indirect. Some binding calls cover weakened binding; strength is not graded here. For part of these data: Where a sequence is shown, tags or fusion partners need not be part of it.

For “endogenous β-Catenin (from UniProt P35222 1-781)”, the binding entry in assay [1] was “binds”.
HA-TCF4 (from UniProt Q9NQB0 1-619): in assay [2], the binding entry is “no binding”.
As for “HA-β-Catenin (wild type) (from UniProt P35222 1-781)”, the binding result was “binds” with Myc-FXR(ΔC-ter) (human); “no binding” with Myc-FXR(Δ240) (human); “binds” in assay [2]; “no binding” with Myc-FXR(Δ125) (human); “no binding” with Myc-FXR(Δ186) (human); “binds” in the assay with Myc-FXR(ΔAF2) (human).

B1: His-FXR (protein, UniProt Q96RI1 1-486)
chain: MVMQFQGLENPIQISPHCSCTPSGFFMEMMSMKPAKGVLTEQVAGPLGQNLEVEPYSQYSNVQFPQVQPQISSSSYYSNLGFYPQQPEEWYSPGIYELRRMPAETLYQGETEVAEMPVTKKPRMGASAGRIKGDELCVVCGDRASGYHYNALTCEGCKGFFRRSITKNAVYKCKNGGNCVMDMYMRRKCQECRLRKCKEMGMLAECMYTGLLTEIQCKSKRLRKNVKQHADQTVNEDSEGRDLRQVTSTTKSCREKTELTPDQQTLLHFIMDSYNKQRMPQEITNKILKEEFSAEENFLILTEMATNHVQVLVEFTKKLPGFQTLDHEDQIALLKGSAVEAMFLRSAEIFNKKLPSGHSDLLEERIRNSGISDEYITPMFSFYKSIGELKMTQEEYALLTAIVILSPDRQYIKDREAVEKLQEPLLDVLQKLCKIHQPENPQHFACLLGRLTELRTFNHHHAEMLMSWRVNDHKFTPLLCEIWDVQ
As for B1, the binding entry with GST-β-Catenin is reported as “binds”.
